# The supplement of paper PMC9446081
# The whole screen tested about 39,000 compounds, of which about 220 (0.56%) showed activity. Some of the results follow.
# Test system: Escherichia coli K-12 BW25113
# Test: relative growth (OD600 normalised to plate interquartile mean) (fraction); higher = less growth inhibition, active = 0.2 or less
# Settings: 50 µM; LB; incubation time: overnight (16-24 h)
# 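Further: static incubation at 37 °C against the wild-type strain, values averaged over two biological replicates.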
row,Structure (SMILES),relative growth
1,CN1C(=O)c2cc(NS(=O)(=O)c3ccc(F)cc3)ccc2OC[C@@H]2O[C@@H](CC(=O)NCC(F)(F)F)CC[C@@H]21,inactive: 0.946
2,C[C@@H]1CN([C@@H](C)CO)C(=O)c2cccc(NC(=O)c3cnccn3)c2O[C@H]1CN(C)S(=O)(=O)c1ccc(F)cc1,inactive: 0.843
3,C[C@@H]1CN([C@@H](C)CO)C(=O)c2cc(NC(=O)c3ccncc3)ccc2O[C@H]1CN(C)Cc1ccc(-c2ccccc2)cc1,inactive: 0.909
4,Nc1nonc1C(=O)NCc1ccco1,inactive: 0.995
5,CC=Cc1ccc2n(c1=O)C[C@@H]1[C@@H](CO)[C@H](C(=O)NC3CCC3)N(S(C)(=O)=O)[C@H]21,inactive: 1.03
6,C[C@@H]1CN([C@@H](C)CO)S(=O)(=O)c2ccc(C#Cc3ccccc3F)cc2O[C@@H]1CN(C)C(=O)Cc1cccnc1,inactive: 1.05
7,COc1ccc(NC(=O)N(C)C[C@H]2Oc3ccc(NC(=O)Cn4cnnn4)cc3C(=O)N([C@@H](C)CO)C[C@H]2C)cc1,inactive: 1.01
8,COCC(=O)N(C)C[C@@H]1Oc2cc(-c3ccc(OC)cc3)ccc2S(=O)(=O)N([C@H](C)CO)C[C@@H]1C,inactive: 0.922
9,C[C@@H]1CN([C@@H](C)CO)C(=O)c2cc(NC(=O)NC3CCCCC3)ccc2O[C@@H](C)CCCCO[C@@H]1CN(C)Cc1ccc2c(c1)OCO2,inactive: 0.998
10,COc1ccc([Si](C)(C)[C@@H]2[C@@H](CC(=O)N(CCO)Cc3ccccc3)O[C@]3(C(=O)N(Cc4ccc(N5C(=O)c6cccc7cccc5c67)cc4)c4ccccc43)[C@H]2C)cc1,inactive: 1.02
11,CNC[C@@H]1OCCCC[C@@H](C)Oc2ccc(NC(=O)c3ccncc3)cc2C(=O)N([C@H](C)CO)C[C@H]1C,inactive: 1.01
12,C[C@@H]1CN([C@@H](C)CO)C(=O)c2cc(C#Cc3ccncc3)cnc2O[C@H]1CN(C)C(=O)c1ccccc1F,inactive: 0.994
13,C[C@@H]1CN([C@@H](C)CO)C(=O)c2cc(C#Cc3ccccc3)cnc2O[C@@H]1CN(C)S(=O)(=O)c1ccccc1F,inactive: 1.02
14,Cc1noc(C)c1S(=O)(=O)Nc1ccc2c(c1)CC(=O)N([C@H](C)CO)C[C@@H](C)[C@@H](CN(C)S(=O)(=O)c1ccc(Cl)cc1)O2,inactive: 0.989
15,Cc1cc(C(=O)O)sc1[C@@H](N)C(=O)O,inactive: 0.967
16,O=C(CCCCCNC(=O)OCc1ccc(CO[C@@H]2C[C@H](C3CCCCC3)C=C(C(=O)N3CCN(Cc4ccccc4)CC3)O2)cc1)NO,inactive: 0.968

row,Structure (SMILES),relative growth
1,C[C@@H]1CN([C@@H](C)CO)S(=O)(=O)c2ccc(-c3ccccc3F)cc2O[C@H]1CN(C)Cc1cncnc1,inactive: 0.984
2,CN(C)CCCNC(=O)C[C@@H]1CC[C@H]2[C@@H](COC[C@@H](O)CN2S(=O)(=O)c2ccc(F)cc2)O1,inactive: 1.03
3,Cc1cnc2c(c1N1CCOCC1)c(=O)n(C)c(=O)n2C,inactive: 1.02
4,COc1ccc(NC(=O)Nc2ccc3c(c2)C(=O)N([C@H](C)CO)C[C@@H](C)[C@@H](CN(C)Cc2ccc(C(F)(F)F)cc2)O3)cc1,inactive: 0.929
5,O=C(C[C@@H]1C[C@H]2c3cc(NC(=O)NC4CCCC4)ccc3O[C@H]2[C@@H](CO)O1)NCc1ccc2c(c1)OCO2,inactive: 1.02
6,Cc1noc(C)c1NC(=O)N(C)C[C@@H]1Oc2c(NC(=O)NC(C)C)cccc2C(=O)N([C@@H](C)CO)C[C@@H]1C,inactive: 0.995
7,CO[C@@H]1CN(C)C(=O)c2ccc(NC(=O)Nc3ccccc3)cc2OC[C@@H](C)N(C(=O)CN(C)C)C[C@@H]1C,inactive: 1.01
8,CCNC(=O)c1cc2c(c(-c3cccc(-c4cccc(F)c4)c3)n1)[C@H](CCO)N([S@@](=O)C(C)(C)C)C2,inactive: 0.997
9,COc1ccc2c3c(n(c2c1)C)[C@H](CO)N(C[C@]13CCN(CC1)C(=O)c1cccnc1)C(=O)c1cccnc1,inactive: 1.02
10,C[C@@H](O)[C@H](N)C(=O)O,inactive: 0.997
11,C[C@H]1CN([C@@H](C)CO)S(=O)(=O)c2ccc(C#Cc3cccc(F)c3)cc2O[C@H]1CN(C)S(=O)(=O)c1cn(C)cn1,inactive: 0.979
12,CNCCC=C1c2ccccc2CCc2ccccc21.Cl,inactive: 1.07
13,c1ccc2[nH]c(-c3ccncc3)nc2c1,inactive: 1.02
14,Cn1cc(CN2CCC3(CC2)CNC(=O)CO3)cn1,inactive: 1.04
15,Cc1noc(C)c1NC(=O)Nc1ccc2c(c1)CC(=O)N([C@@H](C)CO)C[C@@H](C)[C@@H](CN(C)S(=O)(=O)c1c(C)noc1C)O2,inactive: 0.983
